As usually defined, the logD is lipophilicity at a set pH, counting ionised and neutral species. A high value points to a more lipophilic compound. Broadly, the pIC50 is the negative decadic logarithm of the IC50, by convention in mol/L. The AUC(0-t) is exposure summed from dosing to a finite time, without extrapolation to infinity. Read a high AUC(0-t) as high exposure. The term Vd denotes a proportionality between amount in the body and measured concentration, not a real space. Lower therefore signals little distribution into tissue. The bioavailability is the share of a dose that reaches the circulation, judged against a reference dose that is usually intravenous. Low readings indicate poor availability, high ones good availability. As a reminder, the Cmax is the maximum level reached in the sampled fluid or tissue. The Tmax is the time at which the peak concentration occurs. As a reminder, the clearance is the volume of plasma or blood freed of the substance per unit of time.

Consider 23 compounds from ChEMBL document CHEMBL4038348 (J Med Chem, 2017).

A short description of one data set: physchem. The settings on record: octanol/water, pH 7.4.
For data set [1], the target named is Rod cGMP-specific 3',5'-cyclic phosphodiesterase alpha/beta (Homo sapiens, UniProt P16499+P35913).
For data set [2], the target named is Dual specificity calcium/calmodulin-dependent 3',5'-cyclic nucleotide phosphodiesterase 1A (Homo sapiens, UniProt P54750).
Data set [3] addresses cGMP-inhibited 3',5'-cyclic phosphodiesterase 3A (Homo sapiens, UniProt Q14432).
Data set [4] has as its target T1, High affinity cAMP-specific and IBMX-insensitive 3',5'-cyclic phosphodiesterase 8A (Homo sapiens, UniProt O60658).
Data set [5] has as its target T2, 3',5'-cyclic-AMP phosphodiesterase 7B (Homo sapiens, UniProt Q9NP56).
Data set [6] deals with T3, Dual 3',5'-cyclic-AMP and -GMP phosphodiesterase 11A (Homo sapiens, UniProt Q9HCR9). Briefly: biochemical.
T3 sequence (Q9HCR9 whole entry): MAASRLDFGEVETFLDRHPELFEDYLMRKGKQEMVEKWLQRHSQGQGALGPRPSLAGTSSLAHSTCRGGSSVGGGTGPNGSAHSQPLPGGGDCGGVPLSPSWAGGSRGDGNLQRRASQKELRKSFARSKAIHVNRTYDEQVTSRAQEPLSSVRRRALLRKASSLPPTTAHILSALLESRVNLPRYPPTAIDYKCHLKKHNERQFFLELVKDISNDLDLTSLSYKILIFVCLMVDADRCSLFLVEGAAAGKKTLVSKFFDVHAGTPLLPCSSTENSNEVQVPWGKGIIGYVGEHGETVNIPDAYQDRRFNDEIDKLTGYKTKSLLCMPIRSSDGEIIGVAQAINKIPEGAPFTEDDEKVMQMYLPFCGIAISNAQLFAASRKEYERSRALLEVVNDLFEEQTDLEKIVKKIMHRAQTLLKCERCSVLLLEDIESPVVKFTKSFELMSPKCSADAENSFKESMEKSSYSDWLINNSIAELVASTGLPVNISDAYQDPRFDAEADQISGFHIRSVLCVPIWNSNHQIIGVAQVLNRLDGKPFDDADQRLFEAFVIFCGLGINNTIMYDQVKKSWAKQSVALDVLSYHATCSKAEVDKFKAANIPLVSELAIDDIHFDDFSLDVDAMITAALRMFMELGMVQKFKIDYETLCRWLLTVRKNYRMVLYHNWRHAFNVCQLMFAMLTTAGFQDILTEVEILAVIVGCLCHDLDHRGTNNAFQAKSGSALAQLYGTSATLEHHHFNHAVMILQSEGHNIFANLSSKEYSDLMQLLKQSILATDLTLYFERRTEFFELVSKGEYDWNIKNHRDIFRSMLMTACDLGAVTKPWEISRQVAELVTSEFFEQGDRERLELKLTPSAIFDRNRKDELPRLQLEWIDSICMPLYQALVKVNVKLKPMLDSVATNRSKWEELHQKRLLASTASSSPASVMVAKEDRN
The target of data set [7] is cGMP-specific 3',5'-cyclic phosphodiesterase (Homo sapiens, UniProt O76074). Put plainly: biochemical.
Data set [8] addresses T4, High affinity cGMP-specific 3',5'-cyclic phosphodiesterase 9A (Homo sapiens, UniProt O76083). Briefly: biochemical.
Data set [9] has as its target T5, 3',5'-cyclic-AMP phosphodiesterase 4D (Homo sapiens, UniProt Q08499).
The target in data set [10] is T6, cAMP and cAMP-inhibited cGMP 3',5'-cyclic phosphodiesterase 10A (Homo sapiens, UniProt Q9Y233).
T6 sequence (Q9Y233 whole entry): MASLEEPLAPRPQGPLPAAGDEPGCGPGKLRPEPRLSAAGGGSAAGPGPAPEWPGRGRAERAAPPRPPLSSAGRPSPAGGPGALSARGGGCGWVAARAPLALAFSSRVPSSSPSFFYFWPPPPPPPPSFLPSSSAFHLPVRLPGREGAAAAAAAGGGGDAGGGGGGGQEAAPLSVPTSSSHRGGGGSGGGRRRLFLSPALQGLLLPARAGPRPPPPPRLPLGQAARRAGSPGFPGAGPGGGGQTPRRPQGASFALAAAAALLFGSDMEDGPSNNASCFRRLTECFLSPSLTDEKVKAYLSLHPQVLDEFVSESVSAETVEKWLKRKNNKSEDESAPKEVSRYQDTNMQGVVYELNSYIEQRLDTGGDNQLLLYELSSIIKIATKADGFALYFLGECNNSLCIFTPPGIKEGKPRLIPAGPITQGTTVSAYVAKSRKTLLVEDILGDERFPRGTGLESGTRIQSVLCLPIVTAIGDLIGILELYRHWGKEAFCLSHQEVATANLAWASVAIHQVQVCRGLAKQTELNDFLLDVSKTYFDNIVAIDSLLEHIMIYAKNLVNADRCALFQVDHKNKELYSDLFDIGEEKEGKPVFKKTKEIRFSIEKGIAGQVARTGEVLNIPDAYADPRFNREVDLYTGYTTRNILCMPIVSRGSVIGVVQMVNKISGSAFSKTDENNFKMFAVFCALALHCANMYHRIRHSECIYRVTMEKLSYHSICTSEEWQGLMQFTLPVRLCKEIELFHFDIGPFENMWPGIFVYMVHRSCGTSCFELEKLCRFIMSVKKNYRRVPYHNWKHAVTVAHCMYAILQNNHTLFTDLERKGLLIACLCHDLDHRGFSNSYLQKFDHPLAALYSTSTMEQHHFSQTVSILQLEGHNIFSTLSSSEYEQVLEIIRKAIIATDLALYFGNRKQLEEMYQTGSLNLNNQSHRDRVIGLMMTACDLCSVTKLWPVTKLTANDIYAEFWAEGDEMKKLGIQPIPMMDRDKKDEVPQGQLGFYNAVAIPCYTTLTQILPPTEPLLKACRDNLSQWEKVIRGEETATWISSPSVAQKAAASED
Data set [11] addresses Rod cGMP-specific 3',5'-cyclic phosphodiesterase alpha/beta (Homo sapiens, UniProt P35913+P16499).
Data set [12] concerns the target T6, cAMP and cAMP-inhibited cGMP 3',5'-cyclic phosphodiesterase 10A. The source holds these as a separate data set.
Data set [13] deals with T3, Dual 3',5'-cyclic-AMP and -GMP phosphodiesterase 11A.
Data set [14] addresses T2, 3',5'-cyclic-AMP phosphodiesterase 7B. The source holds these as a separate data set.
The target of data set [15] is T5, 3',5'-cyclic-AMP phosphodiesterase 4D. This is another data set of the same source.
Data set [16] addresses T4, High affinity cGMP-specific 3',5'-cyclic phosphodiesterase 9A.
Data set [17] concerns the target T1, High affinity cAMP-specific and IBMX-insensitive 3',5'-cyclic phosphodiesterase 8A. The source holds these as a separate data set.
The nature of data set [18]: in vivo. As to conditions: ICR, mouse, brain, po, 10 mg/kg.
Data set [19] is described as follows: in vivo. The settings on record: Sprague-Dawley, rat, brain, po, 10 mg/kg.
Data set [20] can be described thus: in vivo. As to conditions: ICR, mouse.
Data set [21] in a line: in vivo. The settings on record: ICR, mouse, iv.
The nature of data set [22]: in vivo. As to conditions: Crl:CD(SD) IGS, rat, po, 1 mg/kg.
The nature of data set [23]: in vivo. The settings on record: Crl:CD(SD) IGS, rat, po, 1 mg/kg. The source holds these as a separate data set.
A short description of data set [24]: in vivo. As to conditions: Crl:CD(SD) IGS, rat, iv.
Data set [25] is described as follows: in vivo. The settings on record: Crl:CD(SD) IGS, rat.
The nature of data set [26]: in vivo. The settings on record: Crl:CD(SD) IGS, rat, po, 1 mg/kg. This is another data set of the same source.
Data set [27] in a line: in vivo. The settings on record: ICR, mouse, iv. The source holds these as a separate data set.
The nature of data set [28]: in vivo. The settings on record: Crl:CD(SD) IGS, rat, iv. This is another data set of the same source.
The nature of data set [29]: in vivo. The settings on record: ICR, mouse, po, 1 mg/kg.
Data set [30] is described as follows: in vivo. As to conditions: ICR, mouse, po, 1 mg/kg. The source holds these as a separate data set.
Data set [31] can be described thus: in vivo. As to conditions: ICR, mouse, po, 1 mg/kg. This is another data set of the same source.

pIC50: −log10 of the molar value.

T1 sequence (O60658 whole entry): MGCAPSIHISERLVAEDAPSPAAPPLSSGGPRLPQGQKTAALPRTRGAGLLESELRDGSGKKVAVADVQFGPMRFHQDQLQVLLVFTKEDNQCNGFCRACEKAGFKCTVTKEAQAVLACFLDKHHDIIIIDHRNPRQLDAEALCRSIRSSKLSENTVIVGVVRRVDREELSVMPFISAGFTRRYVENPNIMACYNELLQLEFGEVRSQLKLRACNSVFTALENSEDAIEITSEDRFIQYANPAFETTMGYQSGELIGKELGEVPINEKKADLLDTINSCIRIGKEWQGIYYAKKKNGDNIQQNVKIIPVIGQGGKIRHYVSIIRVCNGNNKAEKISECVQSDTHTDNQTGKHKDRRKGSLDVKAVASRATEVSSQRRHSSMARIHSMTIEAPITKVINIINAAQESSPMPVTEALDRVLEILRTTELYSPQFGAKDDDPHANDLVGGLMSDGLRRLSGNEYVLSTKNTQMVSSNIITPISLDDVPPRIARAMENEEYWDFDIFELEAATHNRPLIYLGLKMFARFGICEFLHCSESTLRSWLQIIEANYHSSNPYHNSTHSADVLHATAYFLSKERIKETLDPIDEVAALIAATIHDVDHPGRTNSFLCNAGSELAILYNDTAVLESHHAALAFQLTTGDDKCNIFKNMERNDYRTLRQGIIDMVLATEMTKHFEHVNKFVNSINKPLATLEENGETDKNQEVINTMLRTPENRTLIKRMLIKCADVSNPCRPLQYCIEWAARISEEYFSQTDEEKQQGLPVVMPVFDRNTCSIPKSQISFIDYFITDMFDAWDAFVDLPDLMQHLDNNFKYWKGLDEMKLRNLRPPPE
T2 sequence (Q9NP56 whole entry): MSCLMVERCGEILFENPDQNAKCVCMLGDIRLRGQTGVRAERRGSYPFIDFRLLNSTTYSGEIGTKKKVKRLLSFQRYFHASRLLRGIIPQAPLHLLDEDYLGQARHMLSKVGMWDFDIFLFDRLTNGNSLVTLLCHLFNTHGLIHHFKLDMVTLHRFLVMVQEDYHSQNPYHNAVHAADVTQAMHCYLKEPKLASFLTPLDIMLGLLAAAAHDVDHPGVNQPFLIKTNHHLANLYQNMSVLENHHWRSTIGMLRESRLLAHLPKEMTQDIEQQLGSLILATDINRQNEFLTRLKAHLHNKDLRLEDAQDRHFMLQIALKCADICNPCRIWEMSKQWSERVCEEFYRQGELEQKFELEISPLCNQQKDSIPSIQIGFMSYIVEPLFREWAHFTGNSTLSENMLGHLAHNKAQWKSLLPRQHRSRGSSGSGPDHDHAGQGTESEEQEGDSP
Sequence of cGMP-inhibited 3',5'-cyclic phosphodiesterase 3A (Q14432 whole entry): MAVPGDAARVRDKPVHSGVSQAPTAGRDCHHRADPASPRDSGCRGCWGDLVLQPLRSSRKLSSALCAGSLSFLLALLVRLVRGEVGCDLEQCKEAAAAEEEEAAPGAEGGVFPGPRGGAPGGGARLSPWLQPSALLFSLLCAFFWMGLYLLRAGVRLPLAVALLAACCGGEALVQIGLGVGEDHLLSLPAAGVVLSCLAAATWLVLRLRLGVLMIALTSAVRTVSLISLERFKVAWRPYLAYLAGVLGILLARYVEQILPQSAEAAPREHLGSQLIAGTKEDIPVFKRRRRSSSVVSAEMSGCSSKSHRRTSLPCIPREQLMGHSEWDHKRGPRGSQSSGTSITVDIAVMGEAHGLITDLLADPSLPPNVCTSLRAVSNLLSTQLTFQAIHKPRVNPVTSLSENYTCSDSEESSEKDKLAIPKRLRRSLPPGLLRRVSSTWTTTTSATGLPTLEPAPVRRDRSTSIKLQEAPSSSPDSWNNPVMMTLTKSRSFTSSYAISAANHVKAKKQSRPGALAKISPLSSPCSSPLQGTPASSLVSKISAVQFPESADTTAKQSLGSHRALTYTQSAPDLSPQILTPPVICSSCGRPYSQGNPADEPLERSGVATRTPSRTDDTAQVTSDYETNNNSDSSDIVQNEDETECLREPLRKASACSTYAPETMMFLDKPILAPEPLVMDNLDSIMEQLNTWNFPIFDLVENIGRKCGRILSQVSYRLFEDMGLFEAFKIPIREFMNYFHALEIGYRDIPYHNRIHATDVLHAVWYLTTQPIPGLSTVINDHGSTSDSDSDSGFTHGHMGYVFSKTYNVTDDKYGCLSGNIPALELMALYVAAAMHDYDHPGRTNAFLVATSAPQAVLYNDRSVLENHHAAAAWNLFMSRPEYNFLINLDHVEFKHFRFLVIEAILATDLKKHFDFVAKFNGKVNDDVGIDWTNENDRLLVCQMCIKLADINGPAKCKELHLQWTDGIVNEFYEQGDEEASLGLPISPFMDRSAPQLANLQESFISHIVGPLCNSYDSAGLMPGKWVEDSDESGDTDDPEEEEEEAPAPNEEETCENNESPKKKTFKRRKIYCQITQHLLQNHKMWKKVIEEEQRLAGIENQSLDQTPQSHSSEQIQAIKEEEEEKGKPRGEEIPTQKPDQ
T4 sequence (O76083 whole entry): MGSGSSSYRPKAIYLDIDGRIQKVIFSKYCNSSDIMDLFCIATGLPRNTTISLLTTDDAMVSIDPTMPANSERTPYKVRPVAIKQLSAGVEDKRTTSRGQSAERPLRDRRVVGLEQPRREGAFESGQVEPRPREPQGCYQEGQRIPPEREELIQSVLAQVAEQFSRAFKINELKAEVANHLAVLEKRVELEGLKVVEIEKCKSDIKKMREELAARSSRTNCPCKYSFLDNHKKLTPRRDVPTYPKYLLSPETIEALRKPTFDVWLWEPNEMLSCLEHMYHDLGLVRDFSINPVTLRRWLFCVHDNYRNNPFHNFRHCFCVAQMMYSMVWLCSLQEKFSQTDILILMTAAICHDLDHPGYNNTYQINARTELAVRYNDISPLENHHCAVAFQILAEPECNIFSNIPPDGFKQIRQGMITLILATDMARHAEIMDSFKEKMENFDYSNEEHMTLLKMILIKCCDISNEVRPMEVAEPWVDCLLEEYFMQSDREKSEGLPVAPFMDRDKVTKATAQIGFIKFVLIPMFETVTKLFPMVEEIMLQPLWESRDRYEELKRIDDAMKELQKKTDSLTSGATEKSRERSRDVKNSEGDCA

As to `CCCC(NC(=O)N1CC(=O)Nc2cccnc21)c1ccc(OC(F)(F)F)cc1` (stereo unspecified), in “physchem”, the logD turned out to be 4.05.

As for `COCC(NC(=O)N1CC(=O)Nc2c(C)ccnc21)c1ccc(OC(F)(F)F)cc1` (stereo unspecified), the logD in “physchem” was 3.16.

In the data set “physchem”, `COCC(NC(=O)N1CC(=O)Nc2cc(OC)cnc21)c1ccc(OC(F)(F)F)cc1` (stereo unspecified) yielded a logD of 3.2.

In “physchem”, `CC(C)(O)C(NC(=O)N1CC(=O)Nc2cccnc21)c1ccc(OC(F)(F)F)cc1` (stereo unspecified) displayed a logD of 2.54.

As for `CCC(NC(=O)N1CC(=O)Nc2cccnc21)c1ccc(OC(F)(F)F)cc1F` (stereo unspecified), in the data set “physchem”, the logD is 3.83.

In turn, `CCC(NC(=O)N1CC(=O)Nc2cccnc21)c1ccc(OC)cc1` (stereo unspecified) displayed a logD in “physchem” of 2.78.

In “physchem”, `COCC(NC(=O)N1CC(=O)Nc2cc(C3CC3)cnc21)c1ccc(OC(F)(F)F)cc1` (stereo unspecified) registered a logD of 3.85.

`CCC(NC(=O)N1CC(=O)Nc2cccnc21)c1ccc(C(F)(F)F)cc1` (stereo unspecified) showed a logD in the data set “physchem” of 3.45.

Compound `CCC(NC(=O)N1CC(=O)Nc2cccnc21)c1ccc(OC(F)(F)F)c(F)c1` (stereo unspecified) gave a logD in the data set “physchem” of 3.67.

`COCCC(NC(=O)N1CC(=O)Nc2cccnc21)c1ccc(OC(F)(F)F)cc1` (stereo unspecified): the logD in the data set “physchem” was 3.09.

`COCC(NC(=O)N1CC(=O)Nc2ccc(C)nc21)c1ccc(OC(F)(F)F)cc1` (stereo unspecified): the logD in “physchem” came out at 3.38.

The compound `COCC(NC(=O)N1CC(=O)Nc2cc(C)cnc21)c1ccc(OC(F)(F)F)cc1` (stereo unspecified) returned a logD in the data set “physchem” of 3.35.

As to `COCC(NC(=O)N1CC(=O)Nc2cc(OC(C)C)cnc21)c1ccc(OC(F)(F)F)cc1` (stereo unspecified), the logD in the data set “physchem” was 3.94.

`O=C1CN(C(=O)NC(CO)c2ccc(OC(F)(F)F)cc2)c2ncccc2N1` (stereo unspecified) gave a logD in the data set “physchem” of 2.16.

In turn, `COCC(NC(=O)N1CC(=O)Nc2cc(Cl)cnc21)c1ccc(OC(F)(F)F)cc1` (stereo unspecified) displayed a logD in “physchem” of 3.74.

For the compound `CCC(NC(=O)N1CC(=O)Nc2cccnc21)c1ccc(C2CC2)cc1` (stereo unspecified), the logD in the data set “physchem” worked out at 3.75.

`CS(=O)(=O)CC(NC(=O)N1CC(=O)Nc2cccnc21)c1ccc(OC(F)(F)F)cc1` (stereo unspecified): the logD in the data set “physchem” was 1.91.

`COCC(NC(=O)N1CC(=O)Nc2cccnc21)c1ccc(OC(F)(F)F)cc1` (stereo unspecified): the logD in “physchem” turned out to be 2.95.

On to `COC[C@@H](NC(=O)N1CC(=O)Nc2cc(OC)cnc21)c1ccc(OC(F)(F)F)cc1`, for which the logD in the data set “physchem” was determined as 3.19.

In turn, `CCC(NC(=O)N1CC(=O)Nc2cccnc21)c1ccccc1OC(F)(F)F` (stereo unspecified) came in with a logD in “physchem” of 3.52.

As for `CCC(NC(=O)N1CC(=O)Nc2cccnc21)c1ccc(OC(F)(F)F)cc1` (racemic), the pIC50 in data set [1] is below 5.00; in [2] it was 5.49; in data set [3], 5.09; in data set [4] it was below 5.00; in [5], below 5.00; in [6] it was below 5.00. The pIC50 is 5.01 in data set [7], below 5.00 in [8], below 5.00 in data set [9] and below 5.00 in [10]. Also, the logD in “physchem” came out at 3.61.

Turning to `CCC(NC(=O)N1CC(=O)Nc2cccnc21)c1ccc(OC(F)(F)F)cc1` (stereo in doubt; 6a), the pIC50 was below 5.00 in [11]; 5.70 in data set [2]; 5.38 in data set [3]; below 5.00 in data set [12]; below 5.00 in data set [13]; below 5.00 in data set [14]. For the same compound, the pIC50 in [15], in data set [7], in [16] and in data set [17] was below 5.00 each time.

On to `COC[C@@H](NC(=O)N1CC(=O)Nc2cc(OC)cnc21)c1ccc(OC(F)(F)F)c(F)c1` [TAK-915], for which the pIC50 in [1] was below 4.52; in data set [2] it was 5.60; in data set [3] it was below 4.52; in [4], below 4.52; in [5], below 4.52; in data set [6], below 4.52. In addition, the pIC50 in [7] is below 4.52; in [8], below 4.52; in data set [9], 4.83; in data set [10], below 4.52. The Kp at 2 h in the data set “in vivo [18]” was determined as 0.91; in “in vivo [19]”, 1.01. The AUC(0-t) came to 1080 ng·h/mL in the data set “in vivo [20]” and 242 ng·h/mL in “in vivo [25]”. Also, the Vd at 8 h in “in vivo [21]” turned out to be 1.6 L/kg; in “in vivo [24]” it was 3.43 L/kg. For the same compound, the bioavailability at 8 h was 56.7% in “in vivo [22]” and 55.6% in “in vivo [31]”. The Cmax at 8 h in “in vivo [23]” amounted to 64.2 ng/mL; in “in vivo [30]”, 201 ng/mL. The Tmax at 8 h in “in vivo [26]” and in “in vivo [29]” was 1.7 h each time. Moreover, the figures for the clearance at 8 h in “in vivo [27]” and in the data set “in vivo [28]” were 8.6 mL/min/kg and 39.3 mL/min/kg, respectively. The compound also registered a logD in the data set “physchem” of 3.32.
